Measurements as given in PubChem BioAssay AID1346428 (National Center for Advancing Translational Sciences (NCATS), 2018).
Screen size: about 48,000 compounds; about 1,200 (2.5%) were called active. Not shown: some 2% with an inconclusive outcome.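 How the source made its calls: active means activation of at least 60% and not above a set upper limit (about 1 call in 100 departs from these limits); inconclusive means activation of 40% to 60%, or above that upper limit; inactive means activation under 40%.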 The list shows a part of the results.

The molecules below were run against Probable G-protein coupled receptor 32 (Homo sapiens) (UniProt O75388) (assay: qHTS for Agonists of Human Resolvin D1 Receptor DRV1). Details: CHO-K1 GPR32 beta-arrestin PathHunter luminescence, 90 min; at 76.9 µM; hits give high values; zero percent set by DMSO-only wells.
In short: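 Cells are plated overnight, treated with compounds in DMSO for 90 minutes at 37 °C, and developed with PathHunter detection reagent for 1 hour before luminescence is read; signal reflects beta-arrestin binding to GPR32 in engineered CHO-K1 cells.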
Further: 0% is about no effect.

Chain of UniProt O75388 (O75388 whole entry, looked up): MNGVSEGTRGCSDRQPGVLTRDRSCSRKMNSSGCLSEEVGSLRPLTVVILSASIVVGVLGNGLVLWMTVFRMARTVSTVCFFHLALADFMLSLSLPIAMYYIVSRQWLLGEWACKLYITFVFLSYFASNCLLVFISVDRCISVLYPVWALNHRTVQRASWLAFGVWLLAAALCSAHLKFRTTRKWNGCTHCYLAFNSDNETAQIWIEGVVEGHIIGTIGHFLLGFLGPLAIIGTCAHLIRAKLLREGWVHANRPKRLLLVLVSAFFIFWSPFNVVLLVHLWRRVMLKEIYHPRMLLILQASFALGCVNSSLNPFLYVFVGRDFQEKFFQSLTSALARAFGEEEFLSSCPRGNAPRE

SMILES	activation
CCCCCN1C(C(=O)c2ccccc2)=C(NC(=O)c2ccccc2Cl)c2ccccc2S1(=O)=O	inactive: -13.4%
CC(=O)c1ccc(N2CCN(S(=O)(=O)c3ccc(-c4cc(C)no4)s3)CC2)cc1	inactive: -1.75%
Cc1cc(C)c(S(=O)(=O)n2cnc(C)c2)c(C)c1	inactive: 2.52%
COC(=O)c1c(NC(=O)COc2cc(C)ccc2C(C)C)sc2c1CCC(C)C2 (stereo not drawn)	inactive: -5.02%
CCOC(=O)C1CCN(S(=O)(=O)c2ccc3c(c2)NC(=O)C(C)C(=O)N3)CC1 (stereo not drawn)	inactive: 8.5%
CCOC(=O)c1ccc(NC(=O)CC2NCCNC2=O)cc1 (stereo not drawn)	inactive: -26.5%
Cc1ccc2nc3c(cc(C(=O)NC4CCCCC4)c(=N)n3C(C)C)c(=O)n2c1	inactive: -4.43%
CCn1c2ccccc2c2cc(NC(=O)COc3ccc(C)c(C)c3)ccc21	inactive: -23.5%
COc1ccc(-c2nc3n(n2)C(=O)CC(c2ccc(Cl)cc2)S3)cc1 (stereo not drawn)	inactive: -2.9%
CCC(C)NC(=O)C1CCC(CNS(=O)(=O)c2ccc(Cl)cc2)CC1 (stereo not drawn)	inactive: -4.6%
Cc1ccc(-c2ccc(=O)n(CC(=O)NCc3ccc(F)cc3)n2)cc1	inactive: -19.5%
CC1=C(C(=O)Nc2ccccc2C)C(c2cccnc2)n2nc(SCc3ccccc3F)nc2N1 (stereo not drawn)	inactive: 17.3%
N#Cc1cccc(NC(=O)C2CCN(c3ncccn3)CC2)c1	inactive: 14.7%
Cc1cccc(NC(=O)CCn2nc(-c3ccccc3)c3ccccc3c2=O)c1	inactive: -22.6%
CCOc1cc(C(=O)Nc2ccc(-c3nc4ncccc4o3)cc2C)cc(OCC)c1OCC	inactive: 6.77%
CCS(=O)(=O)CCSc1nc(-c2ccc(Br)cc2)cc(-c2ccccc2)c1C#N	inactive: -0.132%
CCN1CCC(N(Cc2ccc3c(c2)OCO3)C(=O)Nc2ccc(Br)c(C)c2)CC1	active: 80%
Cc1nn2c(-c3cccc(NC(=O)c4ccc(Cl)cc4)c3)nnc2c2ccccc12	inactive: 29.2%
CCS(=O)(=O)N1CCc2cc(C(=O)Nc3cc(Cl)ccc3C)ccc21	inactive: 21.5%
COc1ccc(-n2c(-c3ccco3)nc3c(cnn3-c3ccc(C)cc3)c2=O)cc1	inactive: -5.24%
CCn1c(=O)n(CC)c2cc(N3CCCCC3)c(NC(=O)Nc3cc(Cl)ccc3OC)cc21	inactive: -33.5%
CCOC(=O)c1c(C)[nH]c(CCC(=O)Nc2ccccc2C(=O)OC)c1C	inactive: -20.7%
Cc1ccc(N2CCN(C(=O)c3cn(C)c4ccc(S(=O)(=O)N(C)C5CCCCC5)cc4c3=O)CC2C)cc1 (stereo not drawn)	inactive: 21.7%
COc1ccc(CCNC(=O)CCS(=O)(=O)c2ccc3c(c2)oc(=O)n3C)cc1OC	inactive: -11.8%
CCCCOCc1cc(CN2CCN(c3cccc(Cl)c3)CC2)c(O)c2ncccc12	inactive: 10.6%
CCOc1ccc(NS(=O)(=O)c2ccc(NC(=O)N3CCCC3)cc2)cc1	active: 64.7%
O=C(CSc1nnc(CNC(=O)c2c(F)cccc2Cl)o1)Nc1cccc(F)c1	inactive: 4.75%

SMILES	activation
CCOc1ccc(C(=O)N2CCN(Cc3cc(=O)n4nc(-c5ccccc5Cl)sc4n3)CC2)cc1	inactive: -2.94%
O=C(Nc1ccc2nn(-c3ccccc3)nc2c1)c1ccc(-c2cccc(Cl)c2)o1	inactive: 13.5%
CCOC(=O)[C@H](CCc1ccccc1)N[C@@H](C)C(=O)N(CC(=O)O)C1Cc2ccccc2C1	inactive: -6.94%
COc1ccccc1NC(=O)C1=C(C)Nc2nc(SCc3cc(C)ccc3C)nn2C1c1ccccc1 (stereo not drawn)	inactive: -2.74%
O=C(c1cccs1)N1CCCc2cc(NS(=O)(=O)c3ccc(F)cc3)ccc21	inactive: -20.8%
CC(C)Cn1c(/C=C/c2ccc(F)cc2)nc2ccccc21	inactive: -41.1%
COCCCNC(=O)CCc1c(C)nc2cc(-c3ccc(Cl)cc3)nn2c1C	inactive: 3.75%
O=C(c1ccc2c(=O)n(CCc3ccccc3)c(=O)[nH]c2c1)N1CCN(c2ccc(Cl)cc2)CC1	inactive: 22.9%
COc1cc2nc(Cl)nc(N)c2cc1OC	inactive: -0.114%
CCn1c(C)c(C)c2cc(C(=O)NCCc3ccc(C)cc3)ccc21	inactive: -29%
COc1ccc(CC(=O)Nc2sc3c(c2C(=O)Nc2c(C)cccc2C)CCCCC3)cc1	inactive: -5.37%
COc1ccc(NC(=O)CSC2=Nc3ccccc3C3=NC(CC(=O)NCc4ccc(F)cc4)C(=O)N23)cc1 (stereo not drawn)	inactive: -22.7%
Cc1ccc(Cl)cc1NC(=O)C(=O)NCCc1sc(-c2ccc(F)cc2)nc1C	inactive: -0.551%
CCc1ccc(-c2nn(CC(=O)NC3CCCCC3)c3c2cnc2ccc(OC)cc23)cc1	inactive: -6.94%
COc1cccc(NC(=O)/C(C#N)=C\c2cn(Cc3ccc(Cl)cc3)c3ccccc23)c1	inactive: 5.05%
Cc1cccc(S(=O)(=O)c2cn(Cc3ccccc3)c3cc(N4CCCCC4C)c(F)cc3c2=O)c1 (stereo not drawn)	inactive: 1.79%
COc1ccc(CNC(=O)Cn2c(=O)oc3cc(S(=O)(=O)N4CCCC4)ccc32)cc1	inactive: 13.1%
CCCOc1ccc(C(=O)Nc2c(C(=O)c3ccc(C)cc3)oc3ccccc23)cc1	inactive: -26.2%
Cc1cc(C(F)F)n2nc(C(=O)Nc3ccc(F)c(Cl)c3)nc2n1	inactive: 5.98%
CCc1nc2ccc(C(=O)N3CCN(c4ccc(Cl)cc4)CC3)cc2nc1CC	inactive: -11.3%
Cc1ccc(Cl)cc1N1CCN(C(=O)c2ccc(C)c(-n3c(C)nc4cccnc43)c2)CC1	inactive: 1.89%
CCCCc1ccc(C(=O)N/C(=C\c2ccc(C)cc2)C(=O)NC2CCCCC2)cc1	inactive: 31.8%
O=C(CC1N=C2c3ccccc3N=C(SCc3ccccc3F)N2C1=O)NCc1cccs1 (stereo not drawn)	inactive: -4.68%
COc1cccc(Nc2nc(-c3ccccc3)c3cc(C)ccc3n2)c1	inactive: -39.9%
Cc1cccc(CNC(=O)c2ccc(Cn3c(=O)c4cccn4c4cccnc43)cc2)c1	inactive: -12.7%
COc1cc(C2CC(=O)Nc3c2c(=O)nc2c(C)cccn32)cc(OC)c1OC (stereo not drawn)	inactive: -0.0409%
